The supplement of paper PMC12423691
This is one part of the list. Binding of human transcription factors and regulators to the viral nucleoprotein by AlphaScreen, crude cell-free proteins, amounts not normalised, one pass. Fold of the Venus control; higher = more signal. No active / inactive call. Single-pass screen; sequences are the whole Swiss-Prot entries looked up by name.

B1: GREM1, O60565 (protein)
chain: MSRTAYTVGALLLLLGTLLPAAEGKKKGSQGAIPPPDKAQHNDSEQTQSPQQPGSRNRGRGQGRGTAMPGEEVLESSQEALHVTERKYLKRDWCKTQPLKQTIHEEGCNSRTIINRFCYGQCNSFYIPRHIRKEEGSFQSCSFCKPKKFTTMMVTLNCPELQPPTKKKRVTRVKQCRCISIDLD
B2: RHEBL1, Q8TAI7 (protein)
chain: MPLVRYRKVVILGYRCVGKTSLAHQFVEGEFSEGYDPTVENTYSKIVTLGKDEFHLHLVDTAGQDEYSILPYSFIIGVHGYVLVYSVTSLHSFQVIESLYQKLHEGHGKTRVPVVLVGNKADLSPEREVQAVEGKKLAESWGATFMESSARENQLTQGIFTKVIQEIARVENSYGQERRCHLM
B3: ANXA3, P12429 (protein)
chain: MASIWVGHRGTVRDYPDFSPSVDAEAIQKAIRGIGTDEKMLISILTERSNAQRQLIVKEYQAAYGKELKDDLKGDLSGHFEHLMVALVTPPAVFDAKQLKKSMKGAGTNEDALIEILTTRTSRQMKDISQAYYTVYKKSLGDDISSETSGDFRKALLTLADGRRDESLKVDEHLAKQDAQILYKAGENRWGTDEDKFTEILCLRSFPQLKLTFDEYRNISQKDIVDSIKGELSGHFEDLLLAIVNCVRNTPAFLAERLHRALKGIGTDEFTLNRIMVSRSEIDLLDIRTEFKKHYGYSLYSAIKSDTSGDYEITLLKICGGDD
B4: LHX1, P48742 (protein)
chain: MVHCAGCKRPILDRFLLNVLDRAWHVKCVQCCECKCNLTEKCFSREGKLYCKNDFFRCFGTKCAGCAQGISPSDLVRRARSKVFHLNCFTCMMCNKQLSTGEELYIIDENKFVCKEDYLSNSSVAKENSLHSATTGSDPSLSPDSQDPSQDDAKDSESANVSDKEAGSNENDDQNLGAKRRGPRTTIKAKQLETLKAAFAATPKPTRHIREQLAQETGLNMRVIQVWFQNRRSKERRMKQLSALGARRHAFFRSPRRMRPLVDRLEPGELIPNGPFSFYGDYQSEYYGPGGNYDFFPQGPPSSQAQTPVDLPFVPSSGPSGTPLGGLEHPLPGHHPSSEAQRFTDILAHPPGDSPSPEPSLPGPLHSMSAEVFGPSPPFSSLSVNGGASYGNHLSHPPEMNEAAVW
B5: RNF41, Q9H4P4 (protein)
chain: MGYDVTRFQGDVDEDLICPICSGVLEEPVQAPHCEHAFCNACITQWFSQQQTCPVDRSVVTVAHLRPVPRIMRNMLSKLQIACDNAVFGCSAVVRLDNLMSHLSDCEHNPKRPVTCEQGCGLEMPKDELPNHNCIKHLRSVVQQQQTRIAELEKTSAEHKHQLAEQKRDIQLLKAYMRAIRSVNPNLQNLEETIEYNEILEWVNSLQPARVTRWGGMISTPDAVLQAVIKRSLVESGCPASIVNELIENAHERSWPQGLATLETRQMNRRYYENYVAKRIPGKQAVVVMACENQHMGDDMVQEPGLVMIFAHGVEEI
B6: CARD14, Q9BXL6 (protein)
chain: MGELCRRDSALTALDEETLWEMMESHRHRIVRCICPSRLTPYLRQAKVLCQLDEEEVLHSPRLTNSAMRAGHLLDLLKTRGKNGAIAFLESLKFHNPDVYTLVTGLQPDVDFSNFSGLMETSKLTECLAGAIGSLQEELNQEKGQKEVLLRRCQQLQEHLGLAETRAEGLHQLEADHSRMKREVSAHFHEVLRLKDEMLSLSLHYSNALQEKELAASRCRSLQEELYLLKQELQRANMVSSCELELQEQSLRTASDQESGDEELNRLKEENEKLRSLTFSLAEKDILEQSLDEARGSRQELVERIHSLRERAVAAERQREQYWEEKEQTLLQFQKSKMACQLYREKVNALQAQVCELQKERDQAYSARDSAQREISQSLVEKDSLRRQVFELTDQVCELRTQLRQLQAEPPGVLKQEARTREPCPREKQRLVRMHAICPRDDSDCSLVSSTESQLLSDLSATSSRELVDSFRSSSPAPPSQQSLYKRVAEDFGEEPWSFSSCLEIPEGDPGALPGAKAGDPHLDYELLDTADLPQLESSLQPVSPGRLDVSESGVLMRRRPARRILSQVTMLAFQGDALLEQISVIGGNLTGIFIHRVTPGSAADQMALRPGTQIVMVDYEASEPLFKAVLEDTTLEEAVGLLRRVDGFCCLSVKVNTDGYKRLLQDLEAKVATSGDSFYIRVNLAMEGRAKGELQVHCNEVLHVTDTMFQGCGCWHAHRVNSYTMKDTAAHGTIPNYSRAQQQLIALIQDMTQQCTVTRKPSSGGPQKLVRIVSMDKAKASPLRLSFDRGQLDPSRMEGSSTCFWAESCLTLVPYTLVRPHRPARPRPVLLVPRAVGKILSEKLCLLQGFKKCLAEYLSQEEYEAWSQRGDIIQEGEVSGGRCWVTRHAVESLMEKNTHALLDVQLDSVCTLHRMDIFPIVIHVSVNEKMAKKLKKGLQRLGTSEEQLLEAARQEEGDLDRAPCLYSSLAPDGWSDLDGLLSCVRQAIADEQKKVVWTEQSPR
B7: PROX1, Q92786 (protein)
chain: MPDHDSTALLSRQTKRRRVDIGVKRTVGTASAFFAKARATFFSAMNPQGSEQDVEYSVVQHADGEKSNVLRKLLKRANSYEDAMMPFPGATIISQLLKNNMNKNGGTEPSFQASGLSSTGSEVHQEDICSNSSRDSPPECLSPFGRPTMSQFDMDRLCDEHLRAKRARVENIIRGMSHSPSVALRGNENEREMAPQSVSPRESYRENKRKQKLPQQQQQSFQQLVSARKEQKREERRQLKQQLEDMQKQLRQLQEKFYQIYDSTDSENDEDGNLSEDSMRSEILDARAQDSVGRSDNEMCELDPGQFIDRARALIREQEMAENKPKREGNNKERDHGPNSLQPEGKHLAETLKQELNTAMSQVVDTVVKVFSAKPSRQVPQVFPPLQIPQARFAVNGENHNFHTANQRLQCFGDVIIPNPLDTFGNVQMASSTDQTEALPLVVRKNSSDQSASGPAAGGHHQPLHQSPLSATTGFTTSTFRHPFPLPLMAYPFQSPLGAPSGSFSGKDRASPESLDLTRDTTSLRTKMSSHHLSHHPCSPAHPPSTAEGLSLSLIKSECGDLQDMSEISPYSGSAMQEGLSPNHLKKAKLMFFYTRYPSSNMLKTYFSDVKFNRCITSQLIKWFSNFREFYYIQMEKYARQAINDGVTSTEELSITRDCELYRALNMHYNKANDFEVPERFLEVAQITLREFFNAIIAGKDVDPSWKKAIYKVICKLDSEVPEIFKSPNCLQELLHE
B8: NR1I2, O75469 (protein)
chain: MEVRPKESWNHADFVHCEDTESVPGKPSVNADEEVGGPQICRVCGDKATGYHFNVMTCEGCKGFFRRAMKRNARLRCPFRKGACEITRKTRRQCQACRLRKCLESGMKKEMIMSDEAVEERRALIKRKKSERTGTQPLGVQGLTEEQRMMIRELMDAQMKTFDTTFSHFKNFRLPGVLSSGCELPESLQAPSREEAAKWSQVRKDLCSLKVSLQLRGEDGSVWNYKPPADSGGKEIFSLLPHMADMSTYMFKGIISFAKVISYFRDLPIEDQISLLKGAAFELCQLRFNTVFNAETGTWECGRLSYCLEDTAGGFQQLLLEPMLKFHYMLKKLQLHEEEYVLMQAISLFSPDRPGVLQHRVVDQLQEQFAITLKSYIECNRPQPAHRFLFLKIMAMLTELRSINAQHTQRLLRIQDIHPFATPLMQELFGITGS
B9: TP53BP1, Q12888 (protein)
chain: MDPTGSQLDSDFSQQDTPCLIIEDSQPESQVLEDDSGSHFSMLSRHLPNLQTHKENPVLDVVSNPEQTAGEERGDGNSGFNEHLKENKVADPVDSSNLDTCGSISQVIEQLPQPNRTSSVLGMSVESAPAVEEEKGEELEQKEKEKEEDTSGNTTHSLGAEDTASSQLGFGVLELSQSQDVEENTVPYEVDKEQLQSVTTNSGYTRLSDVDANTAIKHEEQSNEDIPIAEQSSKDIPVTAQPSKDVHVVKEQNPPPARSEDMPFSPKASVAAMEAKEQLSAQELMESGLQIQKSPEPEVLSTQEDLFDQSNKTVSSDGCSTPSREEGGCSLASTPATTLHLLQLSGQRSLVQDSLSTNSSDLVAPSPDAFRSTPFIVPSSPTEQEGRQDKPMDTSVLSEEGGEPFQKKLQSGEPVELENPPLLPESTVSPQASTPISQSTPVFPPGSLPIPSQPQFSHDIFIPSPSLEEQSNDGKKDGDMHSSSLTVECSKTSEIEPKNSPEDLGLSLTGDSCKLMLSTSEYSQSPKMESLSSHRIDEDGENTQIEDTEPMSPVLNSKFVPAENDSILMNPAQDGEVQLSQNDDKTKGDDTDTRDDISILATGCKGREETVAEDVCIDLTCDSGSQAVPSPATRSEALSSVLDQEEAMEIKEHHPEEGSSGSEVEEIPETPCESQGEELKEENMESVPLHLSLTETQSQGLCLQKEMPKKECSEAMEVETSVISIDSPQKLAILDQELEHKEQEAWEEATSEDSSVVIVDVKEPSPRVDVSCEPLEGVEKCSDSQSWEDIAPEIEPCAENRLDTKEEKSVEYEGDLKSGTAETEPVEQDSSQPSLPLVRADDPLRLDQELQQPQTQEKTSNSLTEDSKMANAKQLSSDAEAQKLGKPSAHASQSFCESSSETPFHFTLPKEGDIIPPLTGATPPLIGHLKLEPKRHSTPIGISNYPESTIATSDVMSESMVETHDPILGSGKGDSGAAPDVDDKLCLRMKLVSPETEASEESLQFNLEKPATGERKNGSTAVAESVASPQKTMSVLSCICEARQENEARSEDPPTTPIRGNLLHFPSSQGEEEKEKLEGDHTIRQSQQPMKPISPVKDPVSPASQKMVIQGPSSPQGEAMVTDVLEDQKEGRSTNKENPSKALIERPSQNNIGIQTMECSLRVPETVSAATQTIKNVCEQGTSTVDQNFGKQDATVQTERGSGEKPVSAPGDDTESLHSQGEEEFDMPQPPHGHVLHRHMRTIREVRTLVTRVITDVYYVDGTEVERKVTEETEEPIVECQECETEVSPSQTGGSSGDLGDISSFSSKASSLHRTSSGTSLSAMHSSGSSGKGAGPLRGKTSGTEPADFALPSSRGGPGKLSPRKGVSQTGTPVCEEDGDAGLGIRQGGKAPVTPRGRGRRGRPPSRTTGTRETAVPGPLGIEDISPNLSPDDKSFSRVVPRVPDSTRRTDVGAGALRRSDSPEIPFQAAAGPSDGLDASSPGNSFVGLRVVAKWSSNGYFYSGKITRDVGAGKYKLLFDDGYECDVLGKDILLCDPIPLDTEVTALSEDEYFSAGVVKGHRKESGELYYSIEKEGQRKWYKRMAVILSLEQGNRLREQYGLGPYEAVTPLTKAADISLDNLVEGKRKRRSNVSSPATPTASSSSSTTPTRKITESPRASMGVLSGKRKLITSEEERSPAKRGRKSATVKPGAVGAGEFVSPCESGDNTGEPSALEEQRGPLPLNKTLFLGYAFLLTMATTSDKLASRSKLPDGPTGSSEEEEEFLEIPPFNKQYTESQLRAGAGYILEDFNEAQCNTAYQCLLIADQHCRTRKYFLCLASGIPCVSHVWVHDSCHANQLQNYRNYLLPAGYSLEEQRILDWQPRENPFQNLKVLLVSDQQQNFLELWSEILMTGGAASVKQHHSSAHNKDIALGVFDVVVTDPSCPASVLKCAEALQLPVVSQEWVIQCLIVGERIGFKQHPKYKHDYVSH

Target: nucleoprotein N of Crimean-Congo hemorrhagic fever virus
Experiment: AlphaScreen luminescence signal relative to Venus negative control (fold); higher = stronger binding to CCHFV N
Protocol: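 AlphaScreen binding of cell-free made, FLAG-GST-tagged human transcription factors and regulators (crude translation products) to biotinylated N protein; signal as fold of the FLAG-GST-Venus control. One pass.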

| Binder | AlphaScreen luminescence signal |
| --- | --- |
| B1 | 2.33 |
| B2 | 1.4 |
| B3 | 1.07 |
| B4 | 2.14 |
| B5 | 4.19 |
| B6 | 1.72 |
| B7 | 2.33 |
| B8 | 2.33 |
| B9 | 1.81 |
